# Assay results: the supplement of paper PMC8728848
# This is one part of the list.
# B1: AAA (Anguilla anguilla), Q7SIC1 (protein)
# chain: VIPEGYTQENVAVRGKATQSAQLRGEHAANSEASNAIDGNRDSNFYHGSCTHSSGQANPWWRVDLLQVYTITSVTITNRGDCCGERISGAEINIGQHLASNGVNNPECSVIGSMATGETKTFHCPAPMIGRYVVTYLPTSESLHLCEVEVNVDKPAAA
# Columns and labels:
# Experiment in all cases: glycan array binding signal (z-score within array); higher = stronger binding
# Details in all cases: glycan notation: IUPAC condensed, linker removed
# [1] = biological target: Neu5Ac(a2-3)Gal(b1-3)[Fuc(a1-4)]GlcNAc
# Outline: (§1)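 Arrays were curated from the Consortium for Functional Glycomics database, 3228 in total, and kept only where the protein sequence was available. Binding is expressed as a within-array Z-score. This score was averaged across arrays of the same protein sequence at different concentrations or buffers and across linkers, and negative values can be read as non-binding.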
# [2] = biological target: Neu5Ac(a2-3)Gal(b1-3)[Fuc(a1-4)]GlcNAc(b1-3)Gal(b1-3)[Fuc(a1-4)]GlcNAc
# Outline: as §1
# [3] = biological target: Neu5Ac(a2-3)Gal(b1-3)[Fuc(a1-4)]GlcNAc(b1-3)Gal(b1-4)[Fuc(a1-3)]GlcNAc
# Outline: as §1
# [4] = biological target: Neu5Ac(a2-3)Gal(b1-3)[GlcNAc(b1-6)]GalNAc
# Outline: as §1
# [5] = biological target: Neu5Ac(a2-3)Gal(b1-3)[Neu5Ac(a2-3)Gal(b1-4)]GlcNAc
# Outline: as §1
# [6] = biological target: Neu5Ac(a2-3)Gal(b1-3)[Neu5Ac(a2-6)]GalNAc
# Outline: as §1
# [7] = biological target: Neu5Ac(a2-3)Gal(b1-3)[Neu5Ac(a2-6)]GlcNAc(b1-3)[Fuc(a1-3)[Gal(b1-4)]GlcNAc(b1-6)]Gal(b1-4)Glc
# Outline: as §1
# [8] = biological target: Neu5Ac(a2-3)Gal(b1-3)]Neu5Ac(a2-3)Gal(b1-4)]GlcNAc
# Outline: as §1
# Neu5Ac(a2-3)Gal(b1-4)Glc = biological target: Neu5Ac(a2-3)Gal(b1-4)Glc
# Outline: as §1
# [9] = biological target: Neu5Ac(a2-3)Gal(b1-4)GlcNAc
# Outline: as §1
# [10] = biological target: Neu5Ac(a2-3)Gal(b1-4)GlcNAc(b1-2)Man
# Outline: as §1
# [11] = biological target: Neu5Ac(a2-3)Gal(b1-4)GlcNAc(b1-2)Man(a1-3)[GlcNAc(b1-4)][Neu5Ac(a2-3)Gal(b1-4)GlcNAc(b1-2)Man(a1-6)]Man(b1-4)GlcNAc(b1-4)GlcNAc
# Outline: as §1
# [12] = biological target: Neu5Ac(a2-3)Gal(b1-4)GlcNAc(b1-2)Man(a1-3)[Neu5Ac(a2-3)Gal(b1-4)GlcNAc(b1-2)Man(a1-6)]Man(b1-4)GlcNAc(b1-4)GlcNAc
# Outline: as §1
# [13] = biological target: Neu5Ac(a2-3)Gal(b1-4)GlcNAc(b1-2)Man(a1-3)[Neu5Ac(a2-3)Gal(b1-4)GlcNAc(b1-2)Man(a1-6)]Man(b1-4)GlcNAc(b1-4)[Fuc(a1-6)]GlcNAc
# Outline: as §1
# [14] = biological target: Neu5Ac(a2-3)Gal(b1-4)GlcNAc(b1-2)Man(a1-3)[Neu5Ac(a2-6)Gal(b1-4)GlcNAc(b1-2)Man(a1-6)]Man(b1-4)GlcNAc(b1-4)GlcNAc
# Outline: as §1
# [15] = biological target: Neu5Ac(a2-3)Gal(b1-4)GlcNAc(b1-2)[Neu5Ac(a2-3)Gal(b1-4)GlcNAc(b1-4)]Man(a1-3)[GlcNAc(b1-4)][Neu5Ac(a2-3)Gal(b1-4)GlcNAc(b1-2)[Neu5Ac(a2-3)Gal(b1-4)GlcNAc(b1-6)]Man(a1-6)]Man(b1-4)GlcNAc(b1-4)GlcNAc
# Outline: as §1
# [16] = biological target: Neu5Ac(a2-3)Gal(b1-4)GlcNAc(b1-2)[Neu5Ac(a2-3)Gal(b1-4)GlcNAc(b1-4)]Man(a1-3)[GlcNAc(b1-4)][Neu5Ac(a2-3)Gal(b1-4)GlcNAc(b1-4)Man(a1-6)]Man(b1-4)GlcNAc(b1-4)GlcNAc
# Outline: as §1
# [17] = biological target: Neu5Ac(a2-3)Gal(b1-4)GlcNAc(b1-2)[Neu5Ac(a2-3)Gal(b1-4)GlcNAc(b1-6)]Man(a1-6)[Neu5Ac(a2-3)Gal(b1-4)GlcNAc(b1-2)Man(a1-3)]Man(b1-4)GlcNAc(b1-4)GlcNAc
# Outline: as §1
# [18] = biological target: Neu5Ac(a2-3)Gal(b1-4)GlcNAc(b1-2)[Neu5Ac(a2-3)Gal(b1-4)GlcNAc(b1-6)]Man(a1-6)[Neu5Ac(a2-3)Gal(b1-4)GlcNAc(b1-2)Man(a1-3)][GlcNAc(b1-4)]Man(b1-4)GlcNAc(b1-4)GlcNAc
# Outline: as §1
# [19] = biological target: Neu5Ac(a2-3)Gal(b1-4)GlcNAc(b1-3)Gal
# Outline: as §1
# [20] = biological target: Neu5Ac(a2-3)Gal(b1-4)GlcNAc(b1-3)Gal(b1-3)GlcNAc
# Outline: as §1
# [21] = biological target: Neu5Ac(a2-3)Gal(b1-4)GlcNAc(b1-3)Gal(b1-4)GlcNAc
# Outline: as §1
# [22] = biological target: Neu5Ac(a2-3)Gal(b1-4)GlcNAc(b1-3)Gal(b1-4)GlcNAc(b1-2)Man(a1-3)[Neu5Ac(a2-3)Gal(b1-4)GlcNAc(b1-3)Gal(b1-4)GlcNAc(b1-2)Man(a1-6)]Man(b1-4)GlcNAc(b1-4)GlcNAc
# Outline: as §1
# [23] = biological target: Neu5Ac(a2-3)Gal(b1-4)GlcNAc(b1-3)Gal(b1-4)GlcNAc(b1-3)Gal(b1-4)GlcNAc
# Outline: as §1
# [24] = biological target: Neu5Ac(a2-3)Gal(b1-4)GlcNAc(b1-3)Gal(b1-4)GlcNAc(b1-3)Gal(b1-4)GlcNAc(b1-2)Man(a1-3)[Neu5Ac(a2-3)Gal(b1-4)GlcNAc(b1-3)Gal(b1-4)GlcNAc(b1-3)Gal(b1-4)GlcNAc(b1-2)Man(a1-6)]GalNAc
# Outline: as §1
# [25] = biological target: Neu5Ac(a2-3)Gal(b1-4)GlcNAc(b1-3)Gal(b1-4)GlcNAc(b1-3)GalNAc
# Outline: as §1
# [26] = biological target: Neu5Ac(a2-3)Gal(b1-4)GlcNAc(b1-3)Gal(b1-4)GlcNAc(b1-3)[Neu5Ac(a2-3)Gal(b1-4)GlcNAc(b1-3)Gal(b1-4)GlcNAc(b1-6)]GalNAc
# Outline: as §1
# [27] = biological target: Neu5Ac(a2-3)Gal(b1-4)GlcNAc(b1-3)Gal(b1-4)GlcNAc(b1-6)[Gal(b1-3)]GalNAc
# Outline: as §1
# [28] = biological target: Neu5Ac(a2-3)Gal(b1-4)GlcNAc(b1-3)Gal(b1-4)[Fuc(a1-3)]GlcNAc
# Outline: as §1
# [29] = biological target: Neu5Ac(a2-3)Gal(b1-4)GlcNAc(b1-3)GalNAc
# Outline: as §1
# [30] = biological target: Neu5Ac(a2-3)Gal(b1-4)GlcNAc(b1-3)[Neu5Ac(a2-3)Gal(b1-4)GlcNAc(b1-6)]GalNAc
# Outline: as §1
# [31] = biological target: Neu5Ac(a2-3)Gal(b1-4)GlcNAc(b1-6)GalNAc
# Outline: as §1
# [32] = biological target: Neu5Ac(a2-3)Gal(b1-4)GlcNAc(b1-6)[Gal(b1-3)]GalNAc
# Outline: as §1
# [33] = biological target: Neu5Ac(a2-3)Gal(b1-4)GlcNAc(b1-6)[Neu5Ac(a2-3)Gal(b1-3)]GalNAc
# Outline: as §1
# [34] = biological target: Neu5Ac(a2-3)Gal(b1-4)GlcNAc6S
# Outline: as §1
# [35] = biological target: Neu5Ac(a2-3)Gal(b1-4)[Fuc(a1-3)]GlcNAc
# Outline: as §1
# [36] = biological target: Neu5Ac(a2-3)Gal(b1-4)[Fuc(a1-3)]GlcNAc(b1-2)Man
# Outline: as §1
# [37] = biological target: Neu5Ac(a2-3)Gal(b1-4)[Fuc(a1-3)]GlcNAc(b1-3)Gal
# Outline: as §1
# [38] = biological target: Neu5Ac(a2-3)Gal(b1-4)[Fuc(a1-3)]GlcNAc(b1-3)Gal(b1-4)GlcNAc
# Outline: as §1
# [39] = biological target: Neu5Ac(a2-3)Gal(b1-4)[Fuc(a1-3)]GlcNAc(b1-3)Gal(b1-4)[Fuc(a1-3)]GlcNAc(b1-3)Gal(b1-4)[Fuc(a1-3)]GlcNAc
# Outline: as §1
# [40] = biological target: Neu5Ac(a2-3)Gal(b1-4)[Fuc(a1-3)]GlcNAc(b1-3)GalNAc
# Outline: as §1
# [41] = biological target: Neu5Ac(a2-3)Gal(b1-4)[Fuc(a1-3)]GlcNAc(b1-6)[Gal(b1-3)]GalNAc
# Outline: as §1
# [42] = biological target: Neu5Ac(a2-3)Gal(b1-4)[Fuc(a1-3)]GlcNAc(b1-6)[Neu5Ac(a2-3)Gal(b1-3)]GalNAc
# Outline: as §1
# [43] = biological target: Neu5Ac(a2-3)Gal(b1-4)[Fuc(a1-3)]GlcNAc6S
# Outline: as §1
# [44] = biological target: Neu5Ac(a2-3)Gal6S(b1-4)GlcNAc
# Outline: as §1
binder,measurement,setting,value
B1,glycan array binding signal (z-score),[1],-0.285
same,glycan array binding signal (z-score),[2],-0.04
same,glycan array binding signal (z-score),[3],0.053
same,glycan array binding signal (z-score),[4],-0.205
same,glycan array binding signal (z-score),[5],-0.77
same,glycan array binding signal (z-score),[6],-0.191
same,glycan array binding signal (z-score),[7],-0.221
same,glycan array binding signal (z-score),[8],-0.205
same,glycan array binding signal (z-score),Neu5Ac(a2-3)Gal(b1-4)Glc,-0.064
same,glycan array binding signal (z-score),[9],-0.086
same,glycan array binding signal (z-score),[10],-0.02
same,glycan array binding signal (z-score),[11],-0.193
same,glycan array binding signal (z-score),[12],-0.248
same,glycan array binding signal (z-score),[13],-0.279
same,glycan array binding signal (z-score),[14],-0.319
same,glycan array binding signal (z-score),[15],-0.284
same,glycan array binding signal (z-score),[16],-0.26
same,glycan array binding signal (z-score),[17],-0.127
same,glycan array binding signal (z-score),[18],-0.271
same,glycan array binding signal (z-score),[19],-0.341
same,glycan array binding signal (z-score),[20],0.182
same,glycan array binding signal (z-score),[21],-0.285
same,glycan array binding signal (z-score),[22],0.96
same,glycan array binding signal (z-score),[23],-0.061
same,glycan array binding signal (z-score),[24],1.85
same,glycan array binding signal (z-score),[25],-0.289
same,glycan array binding signal (z-score),[26],0.062
same,glycan array binding signal (z-score),[27],0.085
same,glycan array binding signal (z-score),[28],-0.425
same,glycan array binding signal (z-score),[29],-0.238
same,glycan array binding signal (z-score),[30],-0.192
same,glycan array binding signal (z-score),[31],-0.175
same,glycan array binding signal (z-score),[32],-0.017
same,glycan array binding signal (z-score),[33],-0.184
same,glycan array binding signal (z-score),[34],-0.093
same,glycan array binding signal (z-score),[35],-0.098
same,glycan array binding signal (z-score),[36],-0.24
same,glycan array binding signal (z-score),[37],-0.378
same,glycan array binding signal (z-score),[38],-0.328
same,glycan array binding signal (z-score),[39],0.079
same,glycan array binding signal (z-score),[40],0.084
same,glycan array binding signal (z-score),[41],0.235
same,glycan array binding signal (z-score),[42],0.034
same,glycan array binding signal (z-score),[43],-0.059
same,glycan array binding signal (z-score),[44],-0.179
